# Source: paper PMC11911400, “Mechanism of ASF1 engagement by CDAN1” (Nature Communications, 2025)
# Numbering of substitutions follows the chain as printed. These are yes or no findings as the source states them, for the method shown. In cells and extracts the contact can be indirect. Some results given as binding are weak or reduced against the parent protein; the word gives no strength.
# T1: Strep-CDAN1 HMHA1* BDA2* (human) (UniProt Q8IWY9)
# T1 sequence: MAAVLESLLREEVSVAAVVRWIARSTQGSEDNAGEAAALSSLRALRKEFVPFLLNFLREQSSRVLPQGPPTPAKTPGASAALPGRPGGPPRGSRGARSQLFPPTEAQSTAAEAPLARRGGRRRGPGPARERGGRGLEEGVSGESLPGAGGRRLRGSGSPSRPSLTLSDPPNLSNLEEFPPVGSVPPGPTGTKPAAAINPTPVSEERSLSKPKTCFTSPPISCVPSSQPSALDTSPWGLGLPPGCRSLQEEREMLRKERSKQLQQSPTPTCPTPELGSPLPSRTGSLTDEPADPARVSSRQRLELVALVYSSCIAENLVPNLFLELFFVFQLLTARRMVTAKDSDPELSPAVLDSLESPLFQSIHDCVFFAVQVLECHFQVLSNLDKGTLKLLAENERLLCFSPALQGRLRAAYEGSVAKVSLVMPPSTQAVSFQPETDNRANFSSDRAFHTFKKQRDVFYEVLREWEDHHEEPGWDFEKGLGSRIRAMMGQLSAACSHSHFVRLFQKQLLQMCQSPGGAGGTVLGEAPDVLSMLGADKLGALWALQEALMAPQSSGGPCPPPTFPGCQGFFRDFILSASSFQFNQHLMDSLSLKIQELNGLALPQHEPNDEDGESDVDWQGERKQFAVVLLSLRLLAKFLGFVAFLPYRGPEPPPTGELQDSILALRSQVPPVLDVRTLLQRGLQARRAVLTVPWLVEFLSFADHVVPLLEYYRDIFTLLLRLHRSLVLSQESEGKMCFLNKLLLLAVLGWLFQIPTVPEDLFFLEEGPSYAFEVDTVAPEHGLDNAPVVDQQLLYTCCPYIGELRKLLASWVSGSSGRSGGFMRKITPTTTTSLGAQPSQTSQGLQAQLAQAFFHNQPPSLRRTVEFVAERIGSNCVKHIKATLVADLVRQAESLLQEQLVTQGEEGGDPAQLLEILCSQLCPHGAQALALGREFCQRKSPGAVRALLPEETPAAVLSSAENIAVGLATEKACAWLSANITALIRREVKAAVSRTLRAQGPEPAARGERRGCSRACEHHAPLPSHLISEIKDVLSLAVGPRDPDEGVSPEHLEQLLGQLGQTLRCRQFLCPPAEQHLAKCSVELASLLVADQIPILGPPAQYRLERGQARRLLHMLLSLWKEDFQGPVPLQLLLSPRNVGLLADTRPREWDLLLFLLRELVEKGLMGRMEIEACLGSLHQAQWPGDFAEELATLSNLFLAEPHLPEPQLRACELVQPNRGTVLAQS
# T2: Strep-CDAN1 HMHA1* HMHA2* BDA2* (three elements mutated) (human) (UniProt Q8IWY9)
# T2 sequence: T1 sequence with R251A, R255A, R258A
# B1: FLAG-tagged CDIN1 (F-CDIN1) (natural protein, UniProt Q9Y2V0 1-281, looked up)
# chain: MILTKAQYDEIAQCLVSVPPTRQSLRKLKQRFPSQSQATLLSIFSQEYQKHIKRTHAKHHTSEAIESYYQRYLNGVVKNGAAPVLLDLANEVDYAPSLMARLILERFLQEHEETPPSKSIINSMLRDPSQIPDGVLANQVYQCIVNDCCYGPLVDCIKHAIGHEHEVLLRDLLLEKNLSFLDEDQLRAKGYDKTPDFILQVPVAVEGHIIHWIESKASFGDECSHHAYLHDQFWSYWNRFGPGLVIYWYGFIQELDCNRERGILLKACFPTNIVTLCHSIA
# notes: C15orf41); cDNA synthesized by IDT; source: Expi293, transiently transfected, in lysate and purified in complexes (anti-FLAG, Strep-Tactin); not shown: 3xFLAG, N-terminal, kept
# Key:
# [1] = target: T1, Strep-CDAN1 HMHA1* BDA2* (human); assay: pull-down; Strep-Tactin pulldown of transiently transfected ST-CDAN1 variants from Flp-In 293 T-REx lysates; endogenous ASF1A, ASF1B and CDIN1 detected by immunoblotting; IP buffer with 1% Triton X-100, 1 hr at 4 °C
# [2] = target: T2, Strep-CDAN1 HMHA1* HMHA2* BDA2* (three elements mutated) (human); assay: as above
binder,measurement,setting,value
B1,binding,[1],binds
same,binding,[2],binds
